This passage reports relative growth results from the supplement of paper PMC9446081.

The structures appear in SMILES notation. Out of some 39,000 compounds screened, about 220 (0.56%) showed activity. The list shows a part of the results.
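Also: static incubation at 37 °C against the wild-type strain, values averaged over two biological replicates.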

This assay has as its system Escherichia coli K-12 BW25113. As to the kind of experiment: relative growth (OD600 normalised to plate interquartile mean) (fraction); higher = less growth inhibition, active = 0.2 or less. Particulars: 50 µM; LB; incubation time: overnight (16-24 h).
Regarding `CCC(=O)N1C[C@]2(C1)CN([C@@H](CO)c1[nH]c3cc(ccc3c12)OC)S(=O)(=O)C`, the relative growth was inactive: 0.971.

As to `C[C@H](NCc1ccc(OCC(N)=O)cc1)C(N)=O`, the relative growth was inactive: 0.983.

Turning to `Cc1noc(C)c1S(=O)(=O)N(C)C[C@@H]1Oc2ccc(NC(=O)NC3CCCCC3)cc2CC(=O)N([C@@H](C)CO)C[C@@H]1C`, the relative growth was inactive: 1.01.

As for `C[C@H](CO)N1C[C@H](C)[C@H](CN(C)C(=O)Nc2ccc3c(c2)OCO3)Oc2c(NC(=O)c3ccc(-c4nccs4)cc3)cccc2C1=O`, the relative growth was inactive: 0.997.

On to `C[C@H](CO)N1C[C@H](C)[C@@H](CN(C)Cc2ccc3c(c2)OCO3)Oc2c(NC(=O)c3cnccn3)cccc2C1=O`, for which the relative growth is inactive: 0.969.

For the molecule `C[C@@H]1CCCCO[C@@H](CN(C)C(=O)Nc2ccccc2)[C@@H](C)CN([C@H](C)CO)C(=O)c2cc(NC(=O)Cc3ccccc3)ccc2O1`, the relative growth is inactive: 1.01.

As to `C[C@@H]1CN([C@@H](C)CO)C(=O)c2cc(NC(=O)Cc3ccccc3)ccc2O[C@@H](C)CCCCO[C@@H]1CN(C)Cc1ccc(C(=O)O)cc1`, the relative growth is inactive: 1.02.

For the molecule `CO[C@@H]1CN(C)C(=O)c2cc(NS(C)(=O)=O)ccc2OC[C@H](C)N(C(=O)C2CCCCC2)C[C@H]1C`, the relative growth was inactive: 1.

Turning to `CC(C)C[C@@H]1NC(=O)[C@@H](C(C)C)NC(=O)[C@@H]2CCCN2C(=O)[C@@H](CC(=O)O)NC(=O)[C@@H](Cc2c[nH]c3ccccc23)NC1=O`, the relative growth is inactive: 1.01.

As to `COc1cccc(S(=O)(=O)N(C)C[C@H]2Oc3ncc(C#CC(C)C)cc3C(=O)N([C@@H](C)CO)C[C@@H]2C)c1`, the relative growth is inactive: 1.01.

Take `CC(CCc1ccccc1)NCC(O)c1ccc(O)c(C(N)=O)c1.Cl` (stereo not drawn): the relative growth is inactive: 1.09.

Regarding `COc1ccc(S(=O)(=O)Nc2ccc3c(c2)C(=O)N([C@@H](C)CO)C[C@@H](C)[C@@H](CN(C)C(=O)Nc2ccc(C(F)(F)F)cc2)OCCCC[C@@H](C)O3)cc1`, the relative growth is inactive: 1.

For the molecule `Cn1cc(C(=O)N2CCN(CC(N)=O)CC2)c2nn(-c3ccccc3)c(=O)c-2c1`, the relative growth is inactive: 0.983.

In the case of `C[C@H](CO)N1C[C@H](C)[C@H](CN(C)Cc2ccc(Oc3ccccc3)cc2)Oc2c(NC(=O)c3ccc(-c4nccs4)cc3)cccc2C1=O`, the relative growth is inactive: 1.02.

As for `C/C=C/C(=O)N1CCC=CC1=O`, the relative growth was inactive: 0.973.

Take `Cn1c(=O)c2c(ncn2CC(=O)N2CCN(c3ccccc3)CC2)n(C)c1=O`: the relative growth is inactive: 0.982.

Consider `Cc1ccccc1S(=O)(=O)N1C[C@@H](O)COC[C@H]2O[C@H](CC(=O)N3CCOCC3)CC[C@@H]21`, for which the relative growth was inactive: 1.

As for `COc1ccc(NC(=O)Nc2ccc3c(c2)C(=O)N([C@H](C)CO)C[C@H](C)[C@@H](CN(C)Cc2ccc(C(=O)O)cc2)OCCCC[C@@H](C)O3)cc1`, the relative growth was inactive: 1.01.

In the case of `O=C(C[C@@H]1C[C@H]2c3cc(NC(=O)Nc4ccccc4)ccc3O[C@H]2[C@@H](CO)O1)NCCN1CCCCC1`, the relative growth was inactive: 1.

As for `COc1ccc(N2C(=O)C[C@@H](c3ccc(Br)cc3)[C@H]2C(=O)Nc2cccc3cccnc23)cc1`, the relative growth was inactive: 1.02.

With `Cl.NC(=O)CCC(N)C(=O)O` (stereo not drawn), the relative growth is inactive: 1.03.

Consider `C[C@@H]1CCCCO[C@H](CN(C)C(=O)Nc2ccc(F)cc2)[C@@H](C)CN([C@H](C)CO)C(=O)c2cc(NC(=O)c3ccccc3)ccc2O1`, for which the relative growth was inactive: 1.04.

Regarding `C=CCNC(=O)[C@H]1[C@@H]2C(=O)O[C@@H](c3ccccc3)[C@@H](c3ccccc3)N2[C@@H](c2ccc(O)cc2)[C@]12C(=O)N(C(=O)OCCOC)c1ccc(C#CC3(O)CCCCCC3)cc12`, the relative growth was inactive: 1.02.

`C[C@H](CO)N1C[C@H](C)[C@H](CN(C)Cc2ccncc2)Oc2ccc(NS(=O)(=O)c3cccs3)cc2C1=O`: the relative growth is inactive: 1.02.

Turning to `CC(C)C[C@H](NC(=O)[C@@H](NC(=O)CNC(=O)CN)C(C)C)C(=O)N[C@H](C(=O)N[C@@H](CCC(N)=O)C(=O)N1CCC[C@H]1C(=O)NCC(=O)O)C(C)C`, the relative growth is inactive: 0.99.

As for `C[C@@H]1CN([C@@H](C)CO)C(=O)c2cccc(NS(=O)(=O)c3ccc(Cl)cc3)c2O[C@H]1CN(C)Cc1ccc(Oc2ccccc2)cc1`, the relative growth is inactive: 1.01.

Regarding `C[C@H](CO)N1C[C@H](C)[C@H](CN(C)C(=O)NC2CCCCC2)Oc2ccc(NC(=O)C3CC3)cc2CC1=O`, the relative growth is inactive: 0.989.

Take `Cc1ccc(S(=O)(=O)N(C)C[C@@H]2OCCCC[C@H](C)Oc3ccc(NC(=O)CCC(F)(F)F)cc3C(=O)N([C@@H](C)CO)C[C@H]2C)cc1`: the relative growth was inactive: 1.01.

In the case of `C=CCOC(=O)[C@H]1[C@@H]2C(=O)O[C@@H](c3ccccc3)[C@@H](c3ccccc3)N2[C@@H](c2ccc(OCCOC(=O)[C@@H]3C[C@@H]4C(=O)N[C@@H](CCCC[N+](C)(C)C)C(=O)N4[C@@H]3c3ccc(O)cc3)cc2)[C@]12C(=O)Nc1ccccc12`, the relative growth was inactive: 0.988.

`Nc1nnc(-c2ccno2)o1`: the relative growth was inactive: 0.961.

Regarding `C[C@@H]1O[C@@H](O)[C@H](O)[C@H](O)[C@H]1O`, the relative growth was inactive: 0.985.

For `C[C@H]1CCCCO[C@H](CN(C)C(=O)Nc2ccc3c(c2)OCO3)[C@@H](C)CN([C@@H](C)CO)C(=O)c2cc(NS(=O)(=O)c3ccc(F)cc3)ccc2O1`, the relative growth is inactive: 1.01.

As to `C[C@H](CO)N1C[C@H](C)[C@@H](CN(C)Cc2ccncc2)Oc2ccc(NS(=O)(=O)c3ccccc3)cc2C1=O`, the relative growth is inactive: 0.996.

In the case of `C[C@H]1CCCCO[C@H](CN(C)C(=O)Nc2ccccc2)[C@@H](C)CN([C@@H](C)CO)C(=O)c2cc(NC(=O)Nc3ccc4c(c3)OCO4)ccc2O1`, the relative growth was inactive: 1.05.

As for `O=C(C[C@@H]1CC[C@H]2[C@@H](COC[C@@H](O)CN2S(=O)(=O)c2ccc(Cl)cc2)O1)N[C@@H]1CCN(Cc2ccccc2)C1`, the relative growth is inactive: 0.971.

For the molecule `Cc1noc(C)c1NC(=O)N(C)C[C@H]1Oc2c(NC(=O)Nc3ccc(C(F)(F)F)cc3)cccc2C(=O)N([C@@H](C)CO)C[C@@H]1C`, the relative growth is inactive: 0.873.

With `C[C@@H]1CN([C@@H](C)CO)S(=O)(=O)c2ccc(C#CCN(C)C)cc2O[C@H]1CN(C)C`, the relative growth was inactive: 0.981.

On to `C=CCC[C@H](Cc1ccc(F)cc1)C(=O)O[C@H](CNC(=O)[C@H](CC=C)CC(=O)N(CCO)Cc1ccccc1)c1ccccc1`, for which the relative growth is inactive: 1.06.

As for `Clc1ccc2c(c1)[C@H]1C=CC[C@@H]1[C@@H](c1ccccc1)N2`, the relative growth was inactive: 1.05.

With `CC(C)NC(=O)Nc1ccc2c(c1)C(=O)N([C@@H](C)CO)C[C@H](C)[C@H](CN(C)Cc1ccc(Oc3ccccc3)cc1)O2`, the relative growth is inactive: 0.999.

Regarding `Cc1noc(C)c1NC(=O)N(C)C[C@@H]1Oc2c(NS(C)(=O)=O)cccc2C(=O)N([C@H](C)CO)C[C@H]1C`, the relative growth was inactive: 0.842.

As for `O=c1ccc2c[nH][nH]c-2c1`, the relative growth was inactive: 1.02.

Consider `C[C@@H]1CN([C@@H](C)CO)C(=O)c2cc(NC(=O)Nc3ccccc3)ccc2O[C@@H](C)CCCCO[C@H]1CN(C)Cc1ccc(Cl)c(Cl)c1`, for which the relative growth is inactive: 0.996.

Turning to `C[C@@H]1CN([C@H](C)CO)C(=O)c2cc(NC(=O)Nc3ccc(C(F)(F)F)cc3)ccc2O[C@H]1CN(C)Cc1ccccc1`, the relative growth is inactive: 0.955.

Turning to `C[C@H](CO)N1C[C@H](C)[C@H](CN(C)Cc2ccc(Oc3ccccc3)cc2)Oc2ccc(NC(=O)Nc3ccccc3)cc2CC1=O`, the relative growth is inactive: 0.979.

On to `C[C@H]1CN([C@@H](C)CO)C(=O)c2cccc(NC(=O)Nc3ccc4c(c3)OCO4)c2O[C@@H]1CN(C)S(C)(=O)=O`, for which the relative growth was inactive: 1.

As for `CC(C)NC(=O)Nc1ccc2c(c1)CC(=O)N([C@@H](C)CO)C[C@@H](C)[C@H](CN(C)Cc1ccc(Oc3ccccc3)cc1)O2`, the relative growth is inactive: 0.986.

Regarding `COc1ccc(S(=O)(=O)N[C@H]2CC[C@H](CCNC(=O)CN3CCOCC3)O[C@H]2CO)cc1`, the relative growth is inactive: 1.

Take `CCS(=O)(=O)Nc1ccc2c(c1)C(=O)N(C)[C@@H]1CC[C@H](CC(=O)NCCCN3CCOCC3)O[C@H]1CO2`: the relative growth was inactive: 1.01.

Turning to `C[C@@H]1CN([C@H](C)CO)C(=O)c2c(c3ccccc3n2C)-c2ccccc2CO[C@H]1CN(C)S(=O)(=O)c1ccc(Cl)cc1`, the relative growth was inactive: 1.04.

Regarding `COc1ccc(CN(C)C[C@H]2OCCCC[C@H](C)Oc3ccc(NC(=O)Nc4ccc(F)cc4)cc3C(=O)N([C@@H](C)CO)C[C@H]2C)cc1`, the relative growth is inactive: 0.974.

With `C[C@H]1CN([C@@H](C)CO)C(=O)Cc2cc(NS(C)(=O)=O)ccc2O[C@@H]1CN(C)Cc1ccc2c(c1)OCO2`, the relative growth was inactive: 0.981.

Turning to `C[C@H](CO)N1C[C@H](C)[C@@H](CN(C)S(C)(=O)=O)OCCCC[C@H](C)Oc2ccc(NC(=O)c3ccncc3)cc2C1=O`, the relative growth was inactive: 0.955.

Regarding `C[C@H]1CN([C@@H](C)CO)C(=O)Cc2cc(NC(=O)Cc3cn(C)c4ccccc34)ccc2O[C@@H]1CN(C)Cc1ccc(C(F)(F)F)cc1`, the relative growth is inactive: 1.06.

In the case of `C[C@H](CO)N1C[C@H](C)[C@H](CN(C)CC2CCCCC2)Oc2ccc(NC(=O)Cc3cn(C)c4ccccc34)cc2CC1=O`, the relative growth is inactive: 1.

Consider `COc1ccc(S(=O)(=O)Nc2ccc3c(c2)C(=O)N([C@@H](C)CO)C[C@H](C)[C@H](CN(C)Cc2ccc(Cl)c(Cl)c2)OCCCC[C@@H](C)O3)cc1`, for which the relative growth was inactive: 1.

Take `Cc1ccc(S(=O)(=O)N(C)C[C@@H]2OCCCC[C@@H](C)Oc3ccc(NC(=O)CCC(F)(F)F)cc3C(=O)N([C@@H](C)CO)C[C@@H]2C)cc1`: the relative growth is inactive: 1.01.

Regarding `O=C(C[C@H]1C[C@@H]2c3cc(NC(=O)NC4CCCC4)ccc3O[C@@H]2[C@H](CO)O1)NCc1ccc(-c2ccccc2)cc1`, the relative growth is inactive: 0.983.
